Measurements: PubChem BioAssay AID686978 (National Center for Advancing Translational Sciences (NCATS), 2013)
Several values for one entry are separate records, joined by “and”; a condition that tells them apart may be missing. Equal entries are not always repeated. In all, about 420,000 compounds went through this assay and about 64,000 (15%) were called active. Inconclusive results, whose numbers are uncertain, are shown with a selection of clear calls. Calls follow the shape of the dose curve; as a rule, active = well fitted inhibition curve with a large enough effect; inconclusive = small, poorly fitted or top-dose-only effect; inactive = flat fitted curve, though single readings scatter. No potency is given beside an inconclusive call; the fits are too rough. A structure can be active in one record and inactive in another.

assay: qHTS for Inhibitors of human tyrosyl-DNA phosphodiesterase 1 (TDP1): qHTS in cells in absence of CPT; conditions: DT40 Tdp1-/- hTDP1 cells, no CPT, ATP luminescence, 48 h; activity change, negative = growth inhibition: at 46.2 µM (top of the series); also: nearly all actives have a fitted effect of over 55% in size
In short: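 Readout: luminescence from CellTiter-Glo after 30 min in the dark at RT. Cells: DT40 Tdp1-/- with stable hTDP1, 400/well. Exposure: compounds alone, ≥48 hr, 37 °C.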
% is scaled to controls: 0 for no effect and ±100 for the full control effect; potency is read from the fitted curve at half-maximal effect; tags tell the direction and shape of the fitted curve.

| SMILES | Potency | activity change, negative = growth inhibition |
| --- | --- | --- |
| Cc1ccc(CN2CC(N3CCN(Cc4cccc(C)c4)CC3)CS2(=O)=O)cc1 (centres undefined) | inconclusive [inhibitor, single point] | – |
| CCc1nc(NCCN)c(C#N)c2c1CSC(C)(C)C2 | inconclusive [inhibitor, single point] | – |
| Nc1ncnc2c1ncn2[C@@H]1O[C@H](C(=O)NCC2CCN(Cc3ccccc3)CC2)[C@@H](O)[C@H]1O | – | inactive: -11.5% |
| Cc1cc(N2CCN(C)CC2)nc2ccc(NC(=S)N3CCN(c4ccc(F)cc4)CC3)cc12 | active: 10.3 µM | – |
| CC(C)(C)NC(=O)Cc1ccc(S(=O)(=O)N2CCCC2)s1 | – | inactive: -2.02% |
| COc1ccc(CNC(=O)CN(c2cc(C(F)(F)F)ccc2Cl)S(C)(=O)=O)cc1 | inconclusive [inhibitor, partial curve, poor fit] | – |
| CCn1c(C)c(C)c2cc(C(=O)NCc3ccc(N(C)C)cc3)ccc21 | inconclusive [inhibitor, single point] | – |
| COc1ccc(-c2cn[nH]c2-c2ccc(OCc3ccc([N+](=O)[O-])cc3)cc2O)cc1 | active: 16.4 µM | – |
| O=C1C2C3C=CC(C4CC34)C2C(=O)N1/N=C/c1ccc([N+](=O)[O-])s1 (centres undefined) | inconclusive [inhibitor, partial curve, poor fit] | – |
| O=C1/C(=C/c2cccs2)CCc2ccccc21 | – | inactive: -26.7% |
| COC(=O)c1c(Sc2ccccc2)c2ccccc2n1C | – | inactive: -6.29% |
| CN(C)S(=O)(=O)c1ccc(N2CCCC2)c(C(=O)N2CCC(C(N)=O)CC2)c1 | – | inactive: -4.04% |
| CCCC[C@@H]1CN=C(N)N1CCc1cccc(F)c1 | active: 5.8 µM | – |
| O=C1c2ccccc2C(c2nnnn2-c2ccc3c(c2)OCCO3)N1Cc1ccccc1 (centres undefined) | inconclusive [inhibitor, single point] | – |
| O=C(Nc1cccc2ccccc12)c1[nH]c(-c2ccccc2)c2c1C(=O)N(C1CC1)C2=O | inconclusive [inhibitor, single point] | – |
| CCC(Sc1nc2cc(OC)c(OC)cc2c(=O)n1CCc1ccc(S(N)(=O)=O)cc1)C(=O)NCCOC (centres undefined) | inconclusive [inhibitor, partial curve] | – |
| O=C(Nc1cccc2ccccc12)N(c1ccccc1)c1ccccc1 | active: 20.6 µM | – |
| COc1ccc(Cl)cc1NC(=O)Cn1ncc2c3ccccc3n(Cc3ccccc3)c2c1=O | active: 14.6 µM | – |
| CCOC(=O)c1c(-c2ccccc2)oc2ccc(OCC(N)=O)cc12 | inconclusive [inhibitor, single point] | – |
| CCOC(=O)C1=NN(C(=O)c2ccc(OC)cc2)C(O)(c2ccc(Cl)cc2)C1 (centres undefined) | inconclusive [inhibitor, single point] | – |
| CCN1/C(=C\C(=S)Nc2ccccc2)Sc2ccccc21 | active: 3.26 µM | – |
| C=CCN(C(=O)C1CC(=O)N(C2CCCC2)C1)c1nc(-c2ccc(S(C)(=O)=O)cc2)cs1 (centres undefined) | active: 14.6 µM | – |
| CCOC(=O)N1CCC(NC(=O)c2cccn3c(=O)c4cc(Br)ccc4nc23)CC1 | inconclusive [inhibitor, partial curve] | – |

| SMILES | Potency | activity change, negative = growth inhibition |
| --- | --- | --- |
| COc1cc(S(=O)(=O)Nc2ccccc2C(=O)N2CCCC2)ccc1NC(C)=O | – | inactive: -2.44% |
| CCOC(=O)C1CCCN(C(=O)c2sc3nc(-c4ccc(F)cc4)cn3c2C)C1 (centres undefined) | active: 25.9 µM | – |
| O=C(C(=Cc1ccc(O)cc1)c1ccccc1)c1ccccc1 | inconclusive [inhibitor, single point] | – |
| O=C(NCCCn1ccnc1)c1ccccc1NS(=O)(=O)c1ccc(F)c(F)c1 | inconclusive [inhibitor, single point] | – |
| CCOC(=O)/C(C#N)=C\c1c(C)cc(C)c(COC(C)=O)c1C | – | inactive: -11.1% |
| c1ccc(C2=Nn3c(nnc3-c3n[nH]c4c3CCC4)SC2)cc1 | inconclusive [inhibitor, single point] | – |
| O=C(COC(=O)c1ccc([N+](=O)[O-])o1)NCc1ccc2c(c1)OCO2 | – | inactive: 13.7% |
| Cc1c(C(=O)N/N=C/c2cccnc2)sc(N)c1C#N | – | inactive: -26.1% |
| Cc1nc2c(c(=O)n1CCC(C)C)c1nc3ccccc3nc1n2CC1CCCO1 (centres undefined) | inconclusive [inhibitor, single point] | – |
| COC(=O)c1nn(-c2ccc(Oc3ccccc3)cc2)c(=O)cc1O | – | inconclusive: -31.2% [inhibitor] |
| C(=N\n1cnnc1)/c1nc2ccccc2[nH]1 | – | inactive: -26.1% |
| CN(C)c1ccc(/C=C/c2ccncc2)cc1 | inactive and active: 25.9 µM | – |
| CCCc1nc2c([nH]1)c(=O)n(C)c(=O)n2C | inconclusive [inhibitor, partial curve, poor fit] | – |
| O=C(Oc1ccc(-c2ccccc2)cc1)c1ccco1 | – | inactive: -15.9% |
| O=C(Nc1ccccc1N1CCOCC1)c1ccco1 | inconclusive [inhibitor, single point] | – |
| CCCCOc1ccccc1C(=O)N(Cc1ccco1)C1CCS(=O)(=O)C1 (centres undefined) | – | inactive: -6.24% |
| N#Cc1ccccc1OCCCN1CCC(Cc2ccccc2)CC1 | active: 16.4 µM | – |
| CCc1cccc(CC)c1N(COC)C(=O)Cn1cnc2ccccc21 | inconclusive [inhibitor, single point] | – |
| CCc1cc2c(=O)c(-c3nc(C)cs3)c(CCCC(=O)O)oc2cc1O | inconclusive [inhibitor, single point] | – |
| CCOc1cc(NC(=O)c2ccccc2C(=O)O)c(OCC)cc1NC(=O)c1ccccc1F | inconclusive [inhibitor, single point] | – |
| CC1CCN(S(=O)(=O)c2ccc3c(ccn3CC(=O)NCc3ccccc3F)c2)CC1 | inconclusive [inhibitor, single point] | – |
| CC(C(=O)Nc1ccccc1Br)N1c2cccc3cccc(c23)S1(=O)=O (centres undefined) | inconclusive [inhibitor, single point] | – |
| O=S(=O)(c1cccc(NC(=S)N2CCN(c3cccc(Cl)c3)CC2)c1)C(F)F | inconclusive [inhibitor, partial curve, poor fit] | – |

| SMILES | Potency | activity change, negative = growth inhibition |
| --- | --- | --- |
| CCOc1ccc(NS(=O)(=O)c2ccc(Cl)c(C(=O)N(C)Cc3cccnc3)c2)cc1 | – | inactive: -32.2% |
| O=C(/C=C/[C@H]1O[C@@H](n2cnc3c(NC(=O)c4ccccc4)ncnc32)[C@H](O)[C@@H]1O)NCC(c1ccccc1)c1ccccc1 | inconclusive [inhibitor, single point] | – |
| O=C(Nc1nnc(C2=COCCO2)o1)c1ccc([N+](=O)[O-])s1 | inconclusive [inhibitor, single point] | – |
| Cc1cccc(N2C(=O)N(c3ccccc3C)C3CS(=O)(=O)CC32)c1 (centres undefined) | – | inactive: -17.8% |
| CCn1cc(C(=O)NCCc2ccc(OC)c(OC)c2)c(=O)c2cc(S(=O)(=O)N3CCOCC3)ccc21 | active: 18.4 µM | – |
| O=C1c2ccccc2C(O)(Cc2ccccc2)N1C1CCCCC1 (centres undefined) | inconclusive [inhibitor, single point] | – |
| O=C(Nc1cccc(C(F)(F)F)c1)c1cc(-c2ccc(Cl)cc2)on1 | inconclusive [inhibitor, full curve] | – |
| CCc1nc2c(cnn2-c2ccc(C)cc2)c(=O)n1-c1ccc(C)cc1 | inconclusive [inhibitor, single point] | – |
| CCOC(=O)[C@]12CCC=C1N(Cc1cccc3ccccc13)C(=O)[C@H](CC(=O)N1CCOCC1)C2 | inconclusive [inhibitor, single point] | – |
| CCCCC[C@H]1CN(CCCC)C(=O)[C@@H]1CC(=O)NCc1ccccc1 | inconclusive [inhibitor, single point] | – |
| Cc1cccc(CSc2nncc(=O)[nH]2)c1 | – | inactive: 0.231% |
| O=C1OCC(c2ccc(Cl)s2)=C1c1ccccc1[N+](=O)[O-] | inconclusive [inhibitor, partial curve, poor fit] | – |
| O=c1[nH][nH]c2c1[C@H](CCc1cccc(Cl)c1)O[C@H](C1CCCC1)C2 | inconclusive [inhibitor, single point] | – |
| COc1ccccc1N1CCN(C(=S)Nc2cccc(C)c2)CC1 | active: 23.1 µM | – |
| O=C(c1ccccc1)c1ccc(OCC(O)CNC2CCCc3ccccc32)cc1 (centres undefined) | inconclusive [inhibitor, single point] | – |
| CCc1nc2ccc(C(=O)Nc3ccc(Cl)c(Cl)c3)cn2c1N(C)Cc1ccc(OC)cc1 | inconclusive [inhibitor, single point] | – |
| COc1cc(/C=C/c2nc3ccccc3s2)cc(OC)c1O | – | inactive: -17.7% |
| COC(=O)c1ccc(CN(c2ccccn2)S(=O)(=O)c2ccccc2)cc1 | inconclusive [inhibitor, partial curve] | – |
| O=C(CCN1CCN(c2ccccc2F)CC1)Nc1ccc2c(c1)OCO2 | inconclusive [inhibitor, single point] | – |
| CCCN(CC(=O)Nc1ccccc1C)C(=O)CC(NC(=O)c1ccccc1)c1ccccc1 (centres undefined) | inconclusive [inhibitor, full curve, poor fit] | – |
| CCCCNC(=O)C1(C)CCCCN1C(=O)c1ccc2ccccc2n1 (centres undefined) | inconclusive [inhibitor, single point] | – |
| COc1cccc(/C=C/C(=O)c2ccc3c(c2)OCO3)c1OC | active: 18.4 µM | – |
| O=C(Nc1ccc(Cl)cc1)N1CCC(CO)(Cc2ccccc2)CC1 | inconclusive [inhibitor, single point] | – |
